# From PubChem BioAssay AID463173 (ICCB-Longwood Screening Facility, Harvard Medical School, 2010)
# Screen size: about 52,000 compounds; about 1,700 (3.3%) were called active. Cut-off read from the data, not from the text of the source: active = survival mostly below about 52% (no sharp cut-off); inactive = mostly above about 56%. The list shows a part of the results.
# Test system: Wild type
# Experiment: S. aureus survival, RN4220 and DeltatarO strains – OD600, teichoic acid synthesis inhibitors, primary screen (AID 463173)
# Conditions: S. aureus RN4220 wild type/DeltatarO growth, OD600, 18 h, stronger effect = lower value, screened at 18.75 µg/mL (by protocol)
row,Compound,survival
1,CCc1ccccc1N(C)C(=O)Nc1cn(CC(C)C)c(=O)c2ccccc12,inactive: 132%
2,C=Cc1ccc(CSc2nc(-c3ccccc3C)nc3c2Cc2c(CO)cnc(C)c2O3)cc1,inactive: 80%
3,CCC1CCCCN1S(=O)(=O)c1ccc2c(c1)CCCN2C(C)=O (configuration not stated),inactive: 82%
4,CCn1cc(C(=O)OCC(=O)Nc2cccc(Cl)c2C)c(=O)c2ccc(C)nc21,inactive: 70%
5,CCOc1ccc(CNC(=O)CCn2c(=O)c3cccn3c3cccnc32)cc1,inactive: 93%
6,N#Cc1ccc(NC(=O)COCc2cc(-c3ccc4c(c3)OCO4)on2)cc1,inactive: 75%
7,Cc1cc(N2CCN(C)CC2)nc2ccc(NC(=O)Nc3ccc(Cl)cc3)cc12,inactive: 75%
8,COC(=O)c1scc(-c2ccc(C)cc2)c1S(=O)(=O)Nc1ccc(OC(F)(F)F)cc1,inactive: 72%
9,CCOc1ccc(N2CC(NC(=O)c3ccc(S(=O)(=O)N4CCOCC4)cc3)CC2=O)cc1 (configuration not stated),inactive: 60%
10,O=C(CSc1nc(=O)n(Cc2ccco2)c2c1CCC2)NCc1ccccc1Cl,inactive: 74%
11,Cc1ccc(/C(C#N)=C\c2cccs2)cc1,inactive: 124%
12,Cc1cc(=O)n2nc(N3CCC(C(=O)NCCCOC(C)C)CC3)sc2n1,inactive: 90%
13,Cc1nn(-c2ccc(F)cc2)c(-n2cccc2)c1C(=O)N1CCCCC1C (configuration not stated),inactive: 71%
14,Cc1cc(NC(=O)c2oc3c(c2C)-c2[nH]ncc2CC3)ccc1Br,active: 1%
15,O=C(CSc1nnc(CNC(=O)c2ccccc2)n1-c1ccc(F)cc1)Nc1ccccc1F,inactive: 84%
16,O=C(CC1NCCNC1=O)Nc1ccc(F)c(Cl)c1 (configuration not stated),inactive: 68%
17,COc1ccc(Nc2ncc(C(=O)Nc3ccc(F)cc3F)c3ccccc23)cc1,inactive: 72%
18,CCCCOc1ccc(C(=O)Nc2sc3c(c2C(=O)OCC)CCCCC3)cc1,inactive: 38%
19,COc1ccccc1N1CCN(S(=O)(=O)c2ccc3c(c2)CCCN3C(C)=O)CC1,inactive: 49%
20,CCOCCCn1c(SCC(=O)Nc2ccc(F)cc2)nc2c(sc3ccccc32)c1=O,inactive: 121%
21,CCC(C(=O)Nc1cc(-c2cn3cccnc3n2)ccc1C)c1ccccc1 (configuration not stated),inactive: 81%
22,CCc1cccc(NC(=O)Cn2c(-c3ccc(F)cc3)cc(C(C)=O)c2C)c1,inactive: 75%
23,O=C(c1ccc2c(c1)N(Cc1ccccc1Cl)C(=O)c1ccccc1S2)N1CCCC1,inactive: 72%

row,Compound,survival
1,CCc1ccccc1-n1c(SCC(=O)Nc2ccc(C)cc2)nc2n[nH]c(C)c2c1=N,inactive: 73%
2,CCCCNS(=O)(=O)c1ccc(NC(=O)c2c(-c3ccccc3)noc2C)cc1,inactive: 130%
3,COc1ccc(CNC(=O)CSc2ncnc3nc[nH]c23)cc1,inactive: 108%
4,Cc1ccccc1CNC(=O)CN1CCSc2ccccc21,inactive: 71%
5,Nc1nc2nc(-c3ccccc3)cc(=O)n2[nH]1,inactive: 59%
6,O=C(CC1CCCCC1)Nc1ccccn1,inactive: 115%
7,COc1ccc(CCCC(=O)NN=Cc2ccco2)cc1,inactive: 97%
8,Fc1ccc(CNc2nc(-c3ccc(Cl)cc3)cc(C(F)(F)F)n2)cc1,active: -5%
9,COc1ccc(NC(=O)CN2CCCN(Cc3ccccc3)S2(=O)=O)cc1,inactive: 72%
10,CCCCOC(=O)c1ccc(NC(=O)c2ccc3c(c2)CCCN3S(C)(=O)=O)cc1,inactive: 113%
11,O=C(CSc1nc2ccccc2nc1Cc1ccc(Cl)cc1)N1CCCCC1,inactive: 83%
12,O=c1oc2ccccc2cc1-c1nc(-c2cccc(Cl)c2)cs1,inactive: 75%
13,COc1ccccc1N1CCN(c2ncc3c(n2)CCN(Cc2ccc(C)s2)C3)CC1,inactive: 59%
14,COc1ccc(Cl)cc1NC(=O)CSc1nc(-c2cccs2)cc(C(F)(F)F)n1,inactive: 57%
15,Cc1ccc(Cl)cc1N1CCN(C(=O)c2sc3nc4n(c(=O)c3c2C)CCC4)CC1,inactive: 75%
16,CCN(CC)C(=O)Cn1cc(SCC(=O)Nc2cc(OC)ccc2OC)c2ccccc21,inactive: 101%
17,CN(C)CCNC(=O)c1ccc2nc(Cc3ccccc3)oc2c1,inactive: 99%
18,COc1ccc(Cl)cc1NC(=O)CSc1cc(C)[nH]c(=O)n1,inactive: 71%
19,N#Cc1ccc(C2NC(=O)NC3=C2C(=O)OC3)cc1 (configuration not stated),inactive: 114%
20,Cc1cccn2c(=O)cc(CSc3nnc(NC(=O)C(C)C)s3)nc12,inactive: 119%
21,CCCCc1c(C)[nH]c2ccccc2c1=O,inactive: 109%
22,Cc1ccccc1C(=O)Nc1sc2c(c1C(=O)N1CCCCC1)CCC(C(C)(C)C)C2 (configuration not stated),active: 1%
23,CCC(CC)C(=O)Nc1ccc2nc(SCC(=O)N3CCOCC3)sc2c1,inactive: 87%

row,Compound,survival
1,Cc1ccc(CSc2nc3ccc(NC(=O)CC(C)C)cc3s2)cc1,inactive: 89%
2,CCC(C)n1c(SCc2ccc(F)cc2Cl)nc2ccsc2c1=O (configuration not stated),inactive: 133%
3,CCOC(=O)c1noc2ncn(Cc3ccc([N+](=O)[O-])cc3)c(=O)c12,inactive: 136%
4,O=C(NCc1ccc(Cl)cc1)C1CCN(S(=O)(=O)c2ccc(F)cc2)CC1,inactive: 80%
5,CSc1ccc(CCNC(=O)c2c(C)nn(-c3ccc(F)cc3)c2-n2cccc2)cc1,inactive: 81%
6,Cc1ccc(CSc2nnc([C@@H](N)C(C)C)o2)cc1,inactive: 85%
7,Cc1c(C)c2c(cc(C)c3c(-c4ccc(Br)cc4)coc32)oc1=O,inactive: 81%
8,CCOC(=O)c1cccc(NC(=O)CCn2c(=O)oc3ccccc32)c1,inactive: 69%
9,CCC(Oc1ccccc1)C(=O)Nc1cccc(OCc2cc(=O)n3cccc(C)c3n2)c1 (configuration not stated),inactive: 121%
10,O=C(CN1CCC(C(=O)c2ccccc2)CC1)NCc1cccs1,inactive: 92%
11,CC(=O)c1ccc(NC(=O)Cn2c(=O)cc(C)c3c(C)nn(-c4cccc(F)c4)c32)cc1,inactive: 71%
12,COc1cccc(NC(=O)CSc2nc(C)c(Cc3ccccc3)c(=O)[nH]2)c1,inactive: 69%
13,CCOC(=O)c1c(C)[nH]c(C)c1S(=O)(=O)NCC(=O)Nc1cccc(SC)c1,inactive: 87%
14,CCC1CCc2nc3sc(C(=O)Nc4cccc(F)c4)c(N)c3cc2C1 (configuration not stated),inactive: 111%
15,Cc1cccc(NC(=O)Cn2cc(S(=O)(=O)N3CCCC3)c(S(=O)(=O)N3CCCC3)c2)c1C,inactive: 138%
16,Oc1cccc(C(O)CNc2c3c(nc4cc(-c5cccc(F)c5)nn24)CCC3)c1 (configuration not stated),inactive: 99%
17,CC12CCC(C/C1=N\OC(=O)O)C2(C)C (configuration not stated),inactive: 88%
18,CCN(CC)c1ccc(C(=O)NCc2nc3cccnc3n2Cc2ccc(C)cc2)cc1,inactive: 100%
19,Cc1cccc(-c2nc3c4c(-c5ccccc5)c(-c5ccccc5)oc4ncn3n2)c1,inactive: 135%
20,Cc1cc(C)n(C(=O)c2ccccc2C(=O)O)n1,inactive: 107%
21,CCCCOc1ccc(C2=NC(c3cccs3)=Nc3ccc(OC)cc3N2)cc1,inactive: 124%
22,COc1ccc(OC)c(CNC(=O)c2c(C)oc3ncn(CC(C)C)c(=O)c23)c1,inactive: 71%
23,COc1cccc2sc(N(Cc3cccnc3)C(=O)c3ccco3)nc12,inactive: 78%

row,Compound,survival
1,Cc1nn(C)c(C)c1S(=O)(=O)N(CC(=O)NCCc1ccc(Cl)cc1)c1ccc(C(C)C)cc1,inactive: 84%
2,Cc1cccc(NC(=O)c2cnc3sc(N4CCCC4)nn3c2=O)c1C,inactive: 102%
3,COc1ccc(NC(=O)c2c(NCc3cccc(F)c3)sc3c2CCC3)c(OC)c1,inactive: 77%
4,CC1CC(C)CN(C(=O)Cn2cnc3c2c(=O)n(C)c(=O)n3C)C1 (configuration not stated),inactive: 114%
5,O=C(NCC(c1cccnc1)N1CCN(c2ccccc2F)CC1)c1ccc(F)cc1 (configuration not stated),inactive: 83%
6,COc1ccc(C)cc1NC(=O)C(=O)NCCc1sc(-c2cccc(C)c2)nc1C,inactive: 71%
7,Cc1cc(C)cc(NC(=O)Cc2csc(COc3cccc(C)c3)n2)c1,inactive: 91%
8,CCn1c(SCC(N)=O)nc2ccccc2c1=O,inactive: 96%
9,Cc1ccccc1C(=O)Nc1ccc(S(=O)(=O)N2CCC(c3nc4ccccc4s3)CC2)cc1,inactive: 61%
10,O=C(O)CSc1nc2ccccc2c(=O)n1-c1ccccc1,inactive: 109%
11,CCCNC(=O)C1CCC(Cn2c(=O)c3sccc3n(CC(=O)NCc3ccccc3)c2=O)CC1 (configuration not stated),inactive: 88%
12,CCOC(=O)c1ccc(NC(=O)CCCc2nc(-c3cc(OC)c(OC)c(OC)c3)no2)cc1,inactive: 68%
13,O=C(NCc1ccccc1F)C1CCCN(C(=O)N2CCOc3ccccc32)C1 (configuration not stated),inactive: 85%
14,O=C(CN1C=NS(=O)(=O)c2ccccc21)Nc1ccccc1F,inactive: 73%
15,CCOc1ccc(S(=O)(=O)N(CC(=O)Nc2ccc(OC)cc2OC)c2ccccc2)cc1,inactive: 140%
16,Cc1nn(CCCC(=O)NCc2ccccc2Br)c(=O)c2c1sc1ccccc12,inactive: 85%
17,O=C(/C=C/N1CCOCC1)c1cc2ccccc2o1,inactive: 117%
18,Cc1cccc2nc(Cn3c(=O)n(-c4ccc(Cl)cc4)c(=O)c4c5c(sc43)CCC5)cc(=O)n12,inactive: 121%
19,CCOc1ccc(C(=O)Nc2cccc(C(=O)OCc3cc(=O)n4cc(C)sc4n3)c2)cc1,inactive: 81%
20,COc1ccc(S(=O)(=O)N(CC(=O)N2CCc3ccccc3C2)c2ccc(C)cc2)cc1,inactive: 66%
21,COc1ccc(OC)c(CNS(=O)(=O)c2ccc3c(c2)oc(=O)n3C)c1,inactive: 83%
22,COc1ccc(N2C(=O)CS(=O)(=O)C23C(=O)N(Cc2ccccc2F)c2ccccc23)cc1Cl (configuration not stated),inactive: 83%
23,COc1ccc(Br)cc1CNC(=O)c1cc(=O)[nH]c2ccc(S(=O)(=O)N3CCCCC3C)cc12 (configuration not stated),inactive: 105%
